First the molecules themselves.
T1: RBFOX1 RRM (Homo sapiens, UniProt Q9NWB1 109-208)
T1 sequence: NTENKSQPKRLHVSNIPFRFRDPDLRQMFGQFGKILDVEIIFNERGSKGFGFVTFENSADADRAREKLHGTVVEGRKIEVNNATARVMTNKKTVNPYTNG

B1: UCUAAUA (DNA:RNA)
RNA: GGGAGACCGGAAUUCAGAUUGUCCUCUAAUAUUAAAUCCCGUCGUAGCCACCA
DNA 1: CAATCTGAATTCCGGTCTCCC
DNA 2: TGGTGGCTACGACGGGATT
B2: UAGGCCG (DNA:RNA)
RNA: B1 RNA with C26A, U27G, A28G, A29C, U30C, A31G
DNA 1: CAATCTGAATTCCGGTCTCCC
DNA 2: TGGTGGCTACGACGGGATT
B3: AUUUGGU (DNA:RNA)
RNA: B1 RNA with U25A, C26U, A28U, A29G, U30G, A31U
DNA 1: CAATCTGAATTCCGGTCTCCC
DNA 2: TGGTGGCTACGACGGGATT
B4: CUUGGAA (DNA:RNA)
RNA: B1 RNA with U25C, C26U, A28G, A29G, U30A
DNA 1: CAATCTGAATTCCGGTCTCCC
DNA 2: TGGTGGCTACGACGGGATT
B5: CUUCGUU (DNA:RNA)
RNA: B1 RNA with U25C, C26U, A28C, A29G, A31U
DNA 1: CAATCTGAATTCCGGTCTCCC
DNA 2: TGGTGGCTACGACGGGATT
B6: AGAGCCU (DNA:RNA)
RNA: GGGAGACCGGAAUUCAGAUUGUCCAGAGCCUUUAAAUCCCGUCGUAGCCACCA
DNA 1: CAATCTGAATTCCGGTCTCCC
DNA 2: TGGTGGCTACGACGGGATT
B7: AAUUUAA (DNA:RNA)
RNA: B1 RNA with U25A, C26A, A28U, A29U, U30A
DNA 1: CAATCTGAATTCCGGTCTCCC
DNA 2: TGGTGGCTACGACGGGATT
B8: AUUUGAC (DNA:RNA)
RNA: B6 RNA with G26U, A27U, G28U, C29G, C30A, U31C
DNA 1: CAATCTGAATTCCGGTCTCCC
DNA 2: TGGTGGCTACGACGGGATT
B9: CCCCAUU (DNA:RNA)
RNA: B1 RNA with U25C, U27C, A28C, A31U
DNA 1: CAATCTGAATTCCGGTCTCCC
DNA 2: TGGTGGCTACGACGGGATT
B10: GCGCAGG (DNA:RNA)
RNA: B1 RNA with U25G, U27G, A28C, U30G, A31G
DNA 1: CAATCTGAATTCCGGTCTCCC
DNA 2: TGGTGGCTACGACGGGATT
B11: CUUUGUU (DNA:RNA)
RNA: B1 RNA with U25C, C26U, A28U, A29G, A31U
DNA 1: CAATCTGAATTCCGGTCTCCC
DNA 2: TGGTGGCTACGACGGGATT
B12: ACAACGG (DNA:RNA)
RNA: B6 RNA with G26C, G28A, C30G, U31G
DNA 1: CAATCTGAATTCCGGTCTCCC
DNA 2: TGGTGGCTACGACGGGATT
B13: UUGACCU (DNA:RNA)
RNA: B6 RNA with A25U, G26U, A27G, G28A
DNA 1: CAATCTGAATTCCGGTCTCCC
DNA 2: TGGTGGCTACGACGGGATT
B14: GCAACUA (DNA:RNA)
RNA: B1 RNA with U25G, U27A, A29C
DNA 1: CAATCTGAATTCCGGTCTCCC
DNA 2: TGGTGGCTACGACGGGATT
B15: CUAUAUU (DNA:RNA)
RNA: B6 RNA with A25C, G26U, G28U, C29A, C30U
DNA 1: CAATCTGAATTCCGGTCTCCC
DNA 2: TGGTGGCTACGACGGGATT
B16: UGCUCCA (DNA:RNA)
RNA: B6 RNA with A25U, A27C, G28U, U31A
DNA 1: CAATCTGAATTCCGGTCTCCC
DNA 2: TGGTGGCTACGACGGGATT
B17: GUGGGAG (DNA:RNA)
RNA: B6 RNA with A25G, G26U, A27G, C29G, C30A, U31G
DNA 1: CAATCTGAATTCCGGTCTCCC
DNA 2: TGGTGGCTACGACGGGATT
B18: AAUGGAG (DNA:RNA)
RNA: B6 RNA with G26A, A27U, C29G, C30A, U31G
DNA 1: CAATCTGAATTCCGGTCTCCC
DNA 2: TGGTGGCTACGACGGGATT
B19: ACUGCGC (DNA:RNA)
RNA: B6 RNA with G26C, A27U, C30G, U31C
DNA 1: CAATCTGAATTCCGGTCTCCC
DNA 2: TGGTGGCTACGACGGGATT
B20: GUCACGC (DNA:RNA)
RNA: B6 RNA with A25G, G26U, A27C, G28A, C30G, U31C
DNA 1: CAATCTGAATTCCGGTCTCCC
DNA 2: TGGTGGCTACGACGGGATT
B21: GACGUAU (DNA:RNA)
RNA: B6 RNA with A25G, G26A, A27C, C29U, C30A
DNA 1: CAATCTGAATTCCGGTCTCCC
DNA 2: TGGTGGCTACGACGGGATT
B22: AUCGCUU (DNA:RNA)
RNA: B6 RNA with G26U, A27C, C30U
DNA 1: CAATCTGAATTCCGGTCTCCC
DNA 2: TGGTGGCTACGACGGGATT
B23: UUCUAAG (DNA:RNA)
RNA: B1 RNA with C26U, U27C, A28U, U30A, A31G
DNA 1: CAATCTGAATTCCGGTCTCCC
DNA 2: TGGTGGCTACGACGGGATT
B24: ACGUGUU (DNA:RNA)
RNA: B6 RNA with G26C, A27G, G28U, C29G, C30U
DNA 1: CAATCTGAATTCCGGTCTCCC
DNA 2: TGGTGGCTACGACGGGATT
B25: UGCUAGU (DNA:RNA)
RNA: B6 RNA with A25U, A27C, G28U, C29A, C30G
DNA 1: CAATCTGAATTCCGGTCTCCC
DNA 2: TGGTGGCTACGACGGGATT
B26: UUCUACA (DNA:RNA)
RNA: B1 RNA with C26U, U27C, A28U, U30C
DNA 1: CAATCTGAATTCCGGTCTCCC
DNA 2: TGGTGGCTACGACGGGATT
B27: UGGGCGU (DNA:RNA)
RNA: B6 RNA with A25U, A27G, C30G
DNA 1: CAATCTGAATTCCGGTCTCCC
DNA 2: TGGTGGCTACGACGGGATT
B28: AAGAGAG (DNA:RNA)
RNA: B6 RNA with G26A, A27G, G28A, C29G, C30A, U31G
DNA 1: CAATCTGAATTCCGGTCTCCC
DNA 2: TGGTGGCTACGACGGGATT
B29: UACCGUA (DNA:RNA)
RNA: B1 RNA with C26A, U27C, A28C, A29G
DNA 1: CAATCTGAATTCCGGTCTCCC
DNA 2: TGGTGGCTACGACGGGATT
B30: UUCGAGG (DNA:RNA)
RNA: B1 RNA with C26U, U27C, A28G, U30G, A31G
DNA 1: CAATCTGAATTCCGGTCTCCC
DNA 2: TGGTGGCTACGACGGGATT
B31: CCUAAUC (DNA:RNA)
RNA: B1 RNA with U25C, A31C
DNA 1: CAATCTGAATTCCGGTCTCCC
DNA 2: TGGTGGCTACGACGGGATT

Numbering of substitutions follows the chain as printed; changes in the protein carry UniProt numbers. Some of the results follow.

For this assay, the target named is T1, RBFOX1 RRM. Briefly: EMSA; HiTS-Eq, 1 nM pool, 10 min; buffer printed only for the single-RNA assays: 10 mM Tris pH 7.5, 150 mM NaCl, 3.4 mM EDTA, 0.001% NP-40, 30 C. The conditions noted are these: tags: His6 N-terminal (pET28a); label: 5' 32P. Put shortly:
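A pool of RNA with 7 randomized nucleotides, 5′-radiolabelled and with DNA-annealed flanks, was equilibrated at 1 nM for 10 min in 50 µL with purified RbFox RRM, wild type or mutant, across increasing protein concentrations. Free RNA was separated by 8% native PAGE, excised, reverse-transcribed, barcoded by PCR and sequenced. Relative association constants were obtained from read-count changes of each RNA species versus the control reaction and normalised to the cognate motif.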
In the case of B1, the binding signal was 0.00235 KA relative to UGCAUGU.

On to B2, for which the binding signal was 0.015 KA relative to UGCAUGU.

In the case of B3, the binding signal was 0.0136 KA relative to UGCAUGU.

Take B4: the binding signal was 0.0119 KA relative to UGCAUGU.

Turning to B5, the binding signal was 0.0135 KA relative to UGCAUGU.

As for B6, the binding signal was 0.00804 KA relative to UGCAUGU.

Consider B7, for which the binding signal is 0.00442 KA relative to UGCAUGU.

As for B8, the binding signal was 0.0117 KA relative to UGCAUGU.

As to B9, the binding signal is 0.00211 KA relative to UGCAUGU.

Take B10: the binding signal was 0.0122 KA relative to UGCAUGU.

For B11, the binding signal is 0.0183 KA relative to UGCAUGU.

B12: the binding signal was 0.00707 KA relative to UGCAUGU.

For the molecule B13, the binding signal is 0.0127 KA relative to UGCAUGU.

Regarding B14, the binding signal was 0.0037 KA relative to UGCAUGU.

For B15, the binding signal is 0.00384 KA relative to UGCAUGU.

As to B16, the binding signal was 0.00955 KA relative to UGCAUGU.

With B17, the binding signal was 0.0115 KA relative to UGCAUGU.

Turning to B18, the binding signal was 0.00389 KA relative to UGCAUGU.

B19: the binding signal is 0.00979 KA relative to UGCAUGU.

For the molecule B20, the binding signal was 0.0139 KA relative to UGCAUGU.

Turning to B21, the binding signal was 0.00701 KA relative to UGCAUGU.

Turning to B22, the binding signal was 0.00304 KA relative to UGCAUGU.

For B23, the binding signal was 0.00998 KA relative to UGCAUGU.

For B24, the binding signal is 0.0131 KA relative to UGCAUGU.

For B25, the binding signal is 0.0309 KA relative to UGCAUGU.

For the molecule B26, the binding signal was 0.00365 KA relative to UGCAUGU.

In the case of B27, the binding signal is 0.0388 KA relative to UGCAUGU.

Take B28: the binding signal was 0.0103 KA relative to UGCAUGU.

Consider B29, for which the binding signal is 0.00462 KA relative to UGCAUGU.

Regarding B30, the binding signal is 0.00939 KA relative to UGCAUGU.

B31: the binding signal is 0.00151 KA relative to UGCAUGU.
